Test results as given in article PMC12136788.
Some of the results follow.

B1: chr13:30205178:30205279:-|3pUTR|ENSG00000102781|msi1|FALSE|bound_elsewhere (ssRNA)
RNA: GGGAGUUCUACAGUCCGACGAUCUUGGCAGUUUCUCUAACGACUCUGUAUAGCUUCUGGCUUCUACUACUGAAACAAGAGUUUAGAUCACUGAUGGAGAGGCAUAGUAAUCUGUUUGUGCUUUGGAAAAAUAUAUAAAAGUUUCAACAGAGGAUUGAGCAUCA
B2: chr12:53253816:53253925:+|CDS|ENSG00000182544|unk|FALSE|unique (ssRNA)
RNA: GGGAGUUCUACAGUCCGACGAUCUCUCUUCAUGUUGACUUUCUCUACCAGCCCAGGCCAGGAGAGUCCGGUGGAGUCCUUCAUAGCCUUUCUACUUAUUGAGUUGGCUUGUGGAUUAUACUUUCCCAGCAUGAGCUUCCUACGCAACAGAGGAUUGAGCAUCA
B3: chr6:158982484:158982688:-|CDS|ENSG00000130363|control|control|control (ssRNA)
RNA: GGGAGUUCUACAGUCCGACGAUCGAAGAAGAAGAGCUGGCUAACCUGCGGGCCAGUCAGCGUGAGUAUGAAGAACUACGGAAUAGUGAACGUGCUGAAGUUCAACGACUUGAAGAGCAAGAGAGGCGACACCGAGAAGAAAAACAACAGAGGAUUGAGCAUCA
B4: chr16:70157515:70157662:+|3pUTR|ENSG00000090857|msi1|FALSE|unique (ssRNA)
RNA: GGGAGUUCUACAGUCCGACGAUCCUCCCUAUAAUUUUCUUCAUCUCUUGCUAAUCUCUAUAAUAAGGUUGCUUUUUCUUUCUUAGUUGAGUAAACAAGUAAGCCACAGUGUUUGAAAGGGAAAAACCAUAUUGCCUUGUGUGUCAACAGAGGAUUGAGCAUCA
B5: chr11:47420279:47420382:-|CDS|ENSG00000165916|unk|FALSE|unique (ssRNA)
RNA: GGGAGUUCUACAGUCCGACGAUCAAACAGGGUGGACAUCCUGGACCCCGCCCUCCUCCGCUCGGGCCGCCUUGACCGCAAGAUAGAGUUCCCGAUGCCCAAUGAGGAGGCCCGGGCCAGAAUCAUGCAGAUCCACUCCCGAAACAACAGAGGAUUGAGCAUCA
B6: ENSG00000136451:be:win_1851|3pUTR|ENSG00000136451|bound_else_gene|NA|bound_elsewhere_windowed (ssRNA)
RNA: GGGAGUUCUACAGUCCGACGAUCUCAUAAGUAGAACCCACUUCAAAAUAAAAAAACAGCAUUACUAUUUCUAAUCCCAAGGAAUCACUUUAUUGUAAACACUAGCAGAACUCUUCUCCCUAUACAAGGUGGAUGGCUGAUUUUCAACAGAGGAUUGAGCAUCA
B7: chr15:48342169:48342270:+|3pUTR|ENSG00000128951|msi1_unk|total|mutant (ssRNA)
RNA: GGGAGUUCUACAGUCCGACGAUCAAAAAAAAAAAAAGUUUUUGCUUCAAGUGUUUUGGUGUUUUGCACUUCUGUAAACUUACCCGCUUUACCUUCUAAAAGUACUGCAUUUUUUACUUUUUUUUAUGAUCAAGGAAAAGAUCACAACAGAGGAUUGAGCAUCA
B8: ENSG00000198589:be:win_4151|CDS|ENSG00000198589|bound_else_gene|NA|bound_elsewhere_windowed (ssRNA)
RNA: GGGAGUUCUACAGUCCGACGAUCCGGCUACACAUGAACUGGAAAAUAUUGAACCUACUCAAGGCCUUUCAAUAGAAGCCUCUGUGACAUUUUUGCAGAGGCUAAUUAGCCUUGUGGAUGUGCUUAUAUUUGCAAGUUCUCUUGCAACAGAGGAUUGAGCAUCA
B9: chr5:69350983:69352230:-|three_prime_utr|ENSG00000085231|control|control|control (ssRNA)
RNA: GGGAGUUCUACAGUCCGACGAUCCACAGCAUCCUACAAGGAAGAAAUCGUGCAUCAGCUGCCCAGUAAUAAACCAGAAGAGCUAGAAAAUAAUGUAGAUCAGAUCUUGAAAUGGAUUGAGCAGUGGAUCAAAGAUCAUAACUCCAACAGAGGAUUGAGCAUCA
B10: ENSG00000149428:stop:overlap|stop_codon|ENSG00000149428|stop_codon|NA|stop_codon (ssRNA)
RNA: GGGAGUUCUACAGUCCGACGAUCGCUCCUGCAGUUCUCACCUGAGGAAGUGUUGGGCAUGGUUCUCAAUUAUUCUCGUUCUCUAGCUGAAGAUUUUGCAGAGCAGCCCAUCAAGGAUGCAGUGAUCACCGUGCCAGUCUUCUUCAACAGAGGAUUGAGCAUCA
B11: chrX:149581652:149582231:-|three_prime_utr|ENSG00000267978|control|control|control (ssRNA)
RNA: GGGAGUUCUACAGUCCGACGAUCCAAAUGUUCUUUUAAUGGUCAGUUUAAUGAACUUCACCAUCGAAGUUAAUGAAUGACAGUAGUCACACAUAUUGCUGUUUAUGUUAUUUAGGAGUAAGAUUCUUGCUUUUGAGUCACAUGCAACAGAGGAUUGAGCAUCA
B12: ENSG00000104231:stop:overlap|stop_codon|ENSG00000104231|stop_codon|NA|stop_codon (ssRNA)
RNA: GGGAGUUCUACAGUCCGACGAUCUCUUGGAAUAUCUUAAUGAUGAAGAACAAUUCUGUAAAAAUGUUGAAUCUUACUUGGAAUAGUCAUUCAAAGAUUCAAGUCAGAAAUCACAGGGAAAAUUCUAUUACAUGUUUAAGUCCACAACAGAGGAUUGAGCAUCA
B13: chr8:54147534:54147638:+|CDS|ENSG00000137547|unk|FALSE|unique (ssRNA)
RNA: GGGAGUUCUACAGUCCGACGAUCAAGUAUGGUUAUAUCUUACCUGAUAUCACUAAAGAUGAACUCUUCAAAAUGCUCUGUACUAGGAAGGAUCCAAGGCAGAUUUUCUUUGGUCUUGCUCCAGGAUGGGUGGUGAAUAUGGCCCAACAGAGGAUUGAGCAUCA
B14: ENSG00000198589:be:win_5751|CDS|ENSG00000198589|bound_else_gene|NA|bound_elsewhere_windowed (ssRNA)
RNA: GGGAGUUCUACAGUCCGACGAUCUGAGUCACUGUGUGCCCAGUAUUCUGCAGACAAACGAGAAGAUGAGAAGAUGUGUGAUCAUUUGAUAAGAGCAGCAAAAUAUCGUGACCACGUGACAGCAACUCAACUAAUCCAGAAAAUCAACAGAGGAUUGAGCAUCA
B15: chr1:168200228:168200338:+|3pUTR|ENSG00000143155|unk|FALSE|unique (ssRNA)
RNA: GGGAGUUCUACAGUCCGACGAUCUAUUUUCUGGAGUUAAAUUUGGAUGAUUUCUAAAUUAUCACAAAGUGGGACCUCAGCAGUAGUGAUGUGUGUGUCUCAUGAGCAGUGAGCACAGUCUGCAUUCAUCAUGAAACACUAUCUCAACAGAGGAUUGAGCAUCA
B16: chr12:98549714:98549829:+|3pUTR|ENSG00000120802|unk|total|mutant (ssRNA)
RNA: GGGAGUUCUACAGUCCGACGAUCGAAGAUGUAUAUUCCGACCAGCACACAAUUUUGAUUUCAAUCCGCCUUAUUCUAAUAUUCCGCUUUCCGAUCUUUCAUACACAUUUUCACGUACUUUGCAAUUGAGACCAGAAAGACUUGCAACAGAGGAUUGAGCAUCA
B17: chr11:112063736:112063838:+|3pUTR|ENSG00000150768|unk|FALSE|unique (ssRNA)
RNA: GGGAGUUCUACAGUCCGACGAUCGAGAGAAAAAAUUAACUAGGUUGCUACUUUAUUUGCCUAAAUACUUUUUUCUAUUUUGUUAGAUUUUGCCUUUCUUUUGGAAGGAAGGAGGCGAUAUUCUGGAUUAUAAAAAUGAAUUGGCAACAGAGGAUUGAGCAUCA
B18: chrX:101625945:101626046:+|CDS|ENSG00000102401|unk|total|mutant (ssRNA)
RNA: GGGAGUUCUACAGUCCGACGAUCAGGUUCACUUUUUUUCUUUUUAAAAGAAUUUCAAGUGUGUGCUGAUAAGGUUCUGGGAACCGAAAGUCACCAUGAUUUUUUGGUGAAAGUAAAAGUUGGAAAAUUCAUGGCCAAACUUGCCAACAGAGGAUUGAGCAUCA
B19: chr21:43756582:43756683:+|3pUTR|ENSG00000160209|msi1|FALSE|unique (ssRNA)
RNA: GGGAGUUCUACAGUCCGACGAUCGCAUUCGAACUUUUGGUUCUUACUUUGCUGCUCGUUUAGUCCCUGGGGAUUUCAGAUCUUAGGCUGUUGUUUCACCGUAUGGGAGGGUUGAUGUGAGCUUGCUUGGAGACACACGGUGCACAACAGAGGAUUGAGCAUCA
B20: chr2:130346496:130346597:+|3pUTR|ENSG00000136718|unk|FALSE|unique (ssRNA)
RNA: GGGAGUUCUACAGUCCGACGAUCACUCAGUCAGGACAUGGACUUGGAACUCAGGAUGGGGCUGUCAUAGACAGACCCACCAGUAGGAACUGUCACAGAAUGGCCUGCUGAACUGGGAUGUGGAACUGUGGCGGGUGGAGAGGUCAACAGAGGAUUGAGCAUCA
B21: chr7:39987650:39987751:+|CDS|ENSG00000065883|unk|total|mutant (ssRNA)
RNA: GGGAGUUCUACAGUCCGACGAUCUCCCGGCAUUCAAGAUCUCGCCGCAGGCACAGAUUGUCCCGAUCCAGAAGUCGUCAUUCCCGUAUUUCUCCCCGCACACUAACUCUGAAGAGCCGCCUGGCAGCUGAAUUGAACAAGAAUCAACAGAGGAUUGAGCAUCA
B22: chr12:123761472:123761573:+|3pUTR|ENSG00000185344|unk|total|mutant (ssRNA)
RNA: GGGAGUUCUACAGUCCGACGAUCAAUAAGGCAGUUUGAACGAACAGUCUUCCCACAGUCAGGCCAUUUUUGCUGAUUUGGUUCCGAAUUUUCAGAAAUACUCCGUACACUCCACCUGUUCUUUGAUGGGAAUAUCUAAGAAGGCAACAGAGGAUUGAGCAUCA

These binders were tested against MSI1 full-length (mouse, UniProt Q61474 1-362) (assay: nsRBNS (natural sequence RNA bind-n-seq); RBNS binding buffer (assumed for nsRBNS): 25 mM Tris pH 7.5, 150 mM KCl, 3 mM MgCl2, 0.01% Triton X-100, 500 ug/ml BSA, 20 U/ml SUPERase-In, 4 C; UNK is unkempt and MSI1 is Musashi-1; names of the RNAs are library labels; protein concentration not given here; high values mean tight binding).
UniProt Q61474, sequence (Q61474 whole entry): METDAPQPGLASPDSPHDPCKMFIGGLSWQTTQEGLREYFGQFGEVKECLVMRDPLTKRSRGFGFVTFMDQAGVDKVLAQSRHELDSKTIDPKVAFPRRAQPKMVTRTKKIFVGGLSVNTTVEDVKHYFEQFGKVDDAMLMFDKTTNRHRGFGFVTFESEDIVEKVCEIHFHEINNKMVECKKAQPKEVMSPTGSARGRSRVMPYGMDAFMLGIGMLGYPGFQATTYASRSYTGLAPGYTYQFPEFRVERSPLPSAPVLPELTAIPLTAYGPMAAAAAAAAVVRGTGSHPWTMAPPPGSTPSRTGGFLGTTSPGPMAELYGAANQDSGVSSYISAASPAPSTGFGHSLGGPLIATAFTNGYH
B1 showed a binding signal of 2.13 enrichment R. B2 gave a binding signal of 0.503 enrichment R. Work on B3 yielded a binding signal of 0.421 enrichment R. Binder B4 has a binding signal of 2.4 enrichment R. B5 gave a binding signal of 0.568 enrichment R. Work on B6 yielded a binding signal of 2.65 enrichment R. With B7 the binding signal was 0.24 enrichment R. With B8 the binding signal was 0.181 enrichment R. With B9 the binding signal was 3.05 enrichment R. B10 was tested, and the binding signal was 0.613 enrichment R. Work on B11 yielded a binding signal of 0.478 enrichment R. B12 was tested, and the binding signal was 0.317 enrichment R. With B13 the binding signal was 0.401 enrichment R. B14 showed a binding signal of 0.283 enrichment R. B15 was tested, and the binding signal was 0.263 enrichment R. Binder B16 has a binding signal of 0.832 enrichment R. Binder B17 has a binding signal of 0.593 enrichment R. For B18, the binding signal was 0.256 enrichment R. For B19, the binding signal was 0.553 enrichment R. With B20 the binding signal was 0.875 enrichment R. With B21 the binding signal was 0.458 enrichment R. Work on B22 yielded a binding signal of 0.207 enrichment R.
